biological target: T1, hCRTH2 (Homo sapiens, UniProt Q9Y5Y4); assay: biochemical; conditions: Ki (nM), Table A; Radioligand Binding Assay A, [3H]PGD2, HEK-hCRTH2 membranes
T1 sequence (Q9Y5Y4 1-395): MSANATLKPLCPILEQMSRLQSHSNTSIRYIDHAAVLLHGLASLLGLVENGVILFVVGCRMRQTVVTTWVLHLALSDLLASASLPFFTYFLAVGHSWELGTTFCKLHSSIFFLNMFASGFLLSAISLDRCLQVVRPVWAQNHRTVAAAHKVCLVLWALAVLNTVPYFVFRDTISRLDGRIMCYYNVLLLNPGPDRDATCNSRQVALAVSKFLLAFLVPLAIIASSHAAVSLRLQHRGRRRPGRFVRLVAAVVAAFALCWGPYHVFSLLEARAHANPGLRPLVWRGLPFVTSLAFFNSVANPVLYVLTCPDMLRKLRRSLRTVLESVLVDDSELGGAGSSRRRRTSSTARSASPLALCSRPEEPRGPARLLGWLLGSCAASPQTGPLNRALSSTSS

Row | Structure (SMILES) | Ki [nM]
1 | O=C(O)CCCN(C1CC1)C1c2ccccc2N(C(=O)OCc2ccccc2)C2CCCC21 (single isomer, unassigned) [compound 60, 4-(phenylmethyl) cis, cis-[(3-carboxypropyl)cyclopropylamino]-1,2,3,3a,9,9a-hexahydro-4H-cyclopenta[b]quinoline-4-carboxylate] | 20.1 to 200
2 | O=C(O)CCC(=O)N(C1CC1)C1c2ccccc2N(C(=O)OCc2ccc(OC(F)(F)F)cc2)C2CCCC21 (single isomer, unassigned) [22K, 4-[[4-(trifluoromethoxy)phenyl]methyl] cis, cis-[(3-carboxy-1-oxopropyl)cyclopropylamino]-1,2,3,3a,9,9a-hexahydro-4H-cyclopenta[b]quinoline-4-carboxylate] | 5.1 to 20
3 | CCN(C(=O)CCC(=O)O)C1c2ccccc2N(C(=O)c2cc(F)cc(F)c2)C2CCC12 (single isomer, unassigned) [compound 85, 4-((cis, cis-3-(3,5-difluorobenzoyl)-1,2,2a,3,8,8a-hexahydrocyclobuta[b]quinolin-8-yl)(ethyl)amino)-4-oxobutanoic acid] | 20.1 to 200
4 | O=C(O)CCC(=O)N(C1CC1)C1c2ccc(Cl)cc2N(C(=O)C2CCc3ccccc3C2)C2CCCC21 (stereo not drawn) [17DL, 4-[[cis,cis-6-chloro-2,3,3a,4,9,9a-hexahydro-4-[(1,2,3,4-tetrahydro-2-naphthalenyl)carbonyl]-1H-cyclopenta[b]quinolin-9-yl]cyclopropylamino]-4-oxobutanoic acid] | 1 to 5
5 | O=C(O)CCC(=O)N(C1CC1)C1c2ccccc2N(C(=O)c2cccc(F)c2)C2CCCC21 (racemic) [17AW, 4-(cyclopropyl(cis,cis-4-(3-fluorobenzoyl)-2,3,3a,4,9,9a-hexahydro-1H-cyclopenta[b]quinolin-9-yl)amino)-4-oxobutanoic acid] | 5.1 to 20
6 | CN(C(=O)CCC(=O)O)C1c2ccccc2N(C(=O)c2cccnc2)C2CCCC12 (racemic) [17V] | 20.1 to 200
7 | O=C(O)[C@@H]1CCN1C(=O)N(C1CC1)C1c2ccccc2N(C(=O)OCc2ccccc2)C2CCCC21 (stereo partly drawn) [compound 33, 4-(Phenylmethyl)cis,cis-[[(2(S)-carboxy-1-azetidinyl)carbonyl]cyclopropylamino]-1,2,3,3a,9,9a-hexahydro-4H-cyclopenta[b]quinoline-4-carboxylate] | 201 to 7500
8 | N#Cc1ccc(COC(=O)N2c3ccccc3C(N(C(=O)CCC(=O)O)C3CC3)C3CCCC32)cc1 (single isomer, unassigned) [22P, 4-[(4-cyanophenyl)methyl] cis, cis-[(3-carboxy-1-oxopropyl)cyclopropylamino]-1,2,3,3a,9,9a-hexahydro-4H-cyclopenta[b]quinoline-4-carboxylate] | 20.1 to 200
9 | O=C(O)CCC(=O)N(C1CC1)C1c2ccc(Cl)cc2N(C(=O)OCc2ccccc2)C2CCCC21 (single isomer, unassigned) [9A, 4-(phenylmethyl) cis,cis-[(3-carboxy-1-oxopropyl)cyclopropylamino]-6-chloro-1,2,3,3a,9,9a-hexahydro-4H-cyclopenta[b]quinoline-4-carboxylate] | 1 to 5
10 | O=C(O)CCC(=O)N(C1CC1)[C@@H]1c2cc(F)ccc2N(C(=O)c2cc(F)cc(F)c2)[C@@H]2CC[C@@H]21 (single isomer, unassigned) [27E, 4-[cyclopropyl[cis, cis-3-(3,5-difluorobenzoyl)-6-fluoro-1,2,2a,3,8,8a-hexahydrocyclobuta[b]quinolin-8-yl]amino]-4-oxobutanoic acid] | 201 to 7500
11 | O=C(O)CCC(=O)N(C1CC1)C1c2ccccc2N(C(=O)c2ccccc2F)C2CCCC21 (single isomer, unassigned) [17BR, 4-[cyclopropyl[cis,cis-4-(2-fluorobenzoyl)-2,3,3a,4,9,9a-hexahydro-1H-cyclopenta[b]quinolin-9-yl]amino]-4-oxobutanoic acid] | 5.1 to 20
12 | O=C(O)CCC(=O)N(C1CC1)C1c2cc(-c3cncnc3)ccc2N(C(=O)c2ccc(OC(F)(F)F)cc2)C2CCCC21 (single isomer, unassigned) [compound 169, 4-(cyclopropyl(cis, cis-7-(pyrimidin-5-yl)-4-(4-(trifluoromethoxy)benzoyl)-2,3,3a,4,9,9a-hexahydro-1H-cyclopenta[b]quinolin-9-yl)amino)-4-oxobutanoic acid] | 201 to 7500
13 | [2H]C1(N(C(=O)CCC(=O)O)C2CC2)c2ccccc2N(C(=O)c2ccc(OC(F)(F)F)cc2)C2CCCC21 (single isomer, unassigned) [17CF] | 5.1 to 20
14 | COc1cc(OC(F)(F)F)ccc1C(=O)N1c2ccc(F)cc2[C@H](N(C(=O)CCC(=O)O)C2CC2)[C@@H]2CCC[C@@H]21 [compound 172] | 5.1 to 20
15 | O=C(O)CCC(=O)N(C1CC1)C1c2ccccc2N(C(=O)c2ccc3ccccc3c2)C2CCCC21 (single isomer, unassigned) [17BU, 4-[cyclopropyl[cis,cis-2,3,3a,4,9,9a-hexahydro-4-(2-naphthalenylcarbonyl)-1H-cyclopenta[b]quinolin-9-yl]amino]-4-oxobutanoic acid] | 1 to 5
16 | O=C(O)CCC(=O)N(C1CC1)[C@@H]1c2cc(Cl)ccc2N(C(=O)OCc2ccccc2)[C@@H]2CC[C@@H]21 (single isomer, unassigned) [compound 107, 4-((cis, cis-3-(benzyloxycarbonyl)-6-chloro-1,2,2a,3,8,8a-hexahydrocyclobuta[b]quinolin-8-yl)(cyclopropyl)amino)-4-oxobutanoic acid] | 5.1 to 20
17 | O=C(O)CCC(=O)N(C1CC1)C1c2ccc(Cl)cc2N(C(=O)c2cccc(OC(F)(F)F)c2)C2CCCC21 (single isomer, unassigned) [17CU, 4-[[cis,cis-6-chloro-2,3,3a,4,9,9a-hexahydro-4-[3-(trifluoromethoxy)benzoyl]-1H-cyclopenta[b]quinolin-9-yl]cyclopropylamino]-4-oxobutanoic acid] | 1 to 5
18 | O=C(O)COC(=O)N(C1CC1)C1c2ccccc2N(C(=O)c2cccc(F)c2)C2CCC21 (single isomer, unassigned) [32J, [[[cyclopropyl[cis, cis-3-(3-fluorobenzoyl)-1,2,2a,3,8,8a-hexahydrocyclobuta[b]quinolin-8-yl]amino]carbonyl]oxy] acetic acid] | 1 to 5
19 | O=C(O)CS(=O)(=O)N(C1CC1)C1c2ccccc2N(C(=O)c2ccc(OC(F)(F)F)cc2)C2CCCC21 (racemic) [17Do, [[cyclopropyl[cis,cis-2,3,3a,4,9,9a-hexahydro-4-[4-(trifluoromethoxy)benzoyl]-1H-cyclopenta[b]quinolin-9-yl]amino]sulfonyl]acetic acid] | 201 to 7500
20 | O=C(O)CCC(=O)N(C1CC1)C1c2ccccc2N(C(=O)c2cccc(-c3ccnnc3)c2)C2CCCC21 (racemic) [18i, 4-[cyclopropyl[cis,cis-2,3,3a,4,9,9a-hexahydro-4-[3-(4-pyridazinyl)benzoyl]-1H-cyclopenta[b]quinolin-9-yl]amino]-4-oxobutanoic acid] | 20.1 to 200
21 | CCN(C(=O)CCC(=O)O)C1c2ccccc2N(C(=O)c2cc(F)c(F)c(F)c2)C2CCCC12 (single isomer, unassigned) [compound 66, 4-[ethyl[cis, cis-2,3,3a,4,9,9a-hexahydro-4-(3,4,5-trifluorobenzoyl)-1H-cyclopenta[b]quinolin-9-yl]amino]-4-oxobutanoic acid] | 5.1 to 20

Reference: patent US8592383B2, “Cycloalkyl-fused tetrahydroquinolines as CRTH2 receptor modulators” (Merck Sharp & Dohme Corp., priority 2011, dated 2013)
